Results published in PubChem BioAssay AID485273 (Sanford-Burnham Center for Chemical Genomics, 2010).
Screen size: about 330,000 compounds; about 1,500 (0.45%) were called active. Inconclusive means that the source gave no clear call. Such entries were picked first, then a sample of the others. Cut-off read from the data, not from the text of the source: active = inhibition above about 45% (passing the limit was not always enough); inconclusive = no clear call, values can overlap the other calls.

Target: Ubiquitin-conjugating enzyme E2 N (Homo sapiens) (UniProt P61088)
Experiment: UBC13 polyubiquitin chain formation inhibitors, primary screen, biochemical, TR-FRET, uHTS (AID 485273)
Conditions: at 20 µM, hits give high values

Sequence of UniProt P61088 (P61088 whole entry, looked up): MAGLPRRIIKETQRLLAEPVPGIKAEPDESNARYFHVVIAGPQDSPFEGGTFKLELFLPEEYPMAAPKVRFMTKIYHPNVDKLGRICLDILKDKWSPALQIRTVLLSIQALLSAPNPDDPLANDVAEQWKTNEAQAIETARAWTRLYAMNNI

inhibition, active:
COc1cc(OC)c2c(-c3ccccc3)cc(=O)oc2c1C(CCN1CCCCC1)c1ccc(N(C)C)cc1 (configuration not stated) 51.1%
CC(C)(C)CN1CCNC[C@H]1Cc1cccc2ccccc12 46.8%
C=CCc1ccccc1OCC(O)CN1CCN(CCN2C(=O)c3cccc4cccc(c34)C2=O)CC1 (configuration not stated) 59%
C#CCOCCOCCOCCNc1nc(N2CCN(C(=O)[C@H]([C@@H](C)CC)n3cc([C@@H](N)Cc4ccc(O)cc4)nn3)CC2)nc(N2CCN(C(=O)[C@H](Cc3cc4ccccc4[nH]3)n3cc([C@@H](N)C(C)CC)nn3)CC2)n1 (some centres not stated) 77.8%
CCCn1c2ccccc2c2nc3ccccc3nc21 46.6%
CN(C)CCSc1nc(N)c2c3c(sc2n1)CN(C)CC3 75%
O=C1/C(=C/c2cccc([N+](=O)[O-])c2)CSc2ccc(Cl)cc21 48.6%
Cc1ccc(Cc2c(C)nc3nc(SCC(=O)NCCCN4CCCCCC4)nn3c2C)cc1 103%
CCCCC(=O)Nc1ccc2c3c(cccc13)C(=O)N2CC 60.5%
CC(C)(C)C1CCC(CN2C(Nc3ccccc3)=NC[C@@H]2Cc2ccccc2)CC1 (some centres not stated) 71.9%
CCCc1nnc(NC(=O)c2nc(S(=O)(=O)Cc3ccc(C)cc3)ncc2Cl)s1 59.1%
OC(CNCC1CCCO1)Cn1c2ccc(Br)cc2c2cc(Br)ccc21 (configuration not stated) 57.5%
CN(C)CCCn1c(SCC(=O)Nc2nc(-c3cccc(Br)c3)cs2)nc2ccccc2c1=O 116%
COc1ccnc2c1c(=O)n(Cc1cccc(F)c1)c(=O)n2C 48.2%
COc1ccc(NC(=O)CSc2nc3ccsc3c(=O)n2CCCCCC(=O)O)cc1 61.6%
CC(C)(C)c1cc(NCCCn2ccnc2)n2ncc(-c3ccccc3)c2n1 60.7%

inhibition, inactive:
Cc1ccc(-n2cc(C(=O)c3ccc4ccccc4c3O)cn2)cc1 -3.3%
COc1cccc2cc(C(=O)N3CC(C)OC(C)C3)c(=O)oc12 (configuration not stated) -3.3%
Cc1[nH]n(-c2ccccc2)c(=O)c1N=Nc1ccccc1O -129%
Cc1ccc(S(=O)(=O)CCC(=O)OCc2nnc(-c3ccccc3Br)o2)cc1 -13.6%
Cc1ccc(NC(=O)Nc2nnc(Cc3ccc(F)cc3)s2)cc1 4.3%
COc1ccc(/C=C/C(=O)Nn2cnnc2)cc1 7.3%
O=C(COC(=O)c1ccccc1Nc1ccc(SC(F)F)cc1)NCc1ccco1 8.4%
O=C(c1ccc2nc[nH]c2c1)N1CCN(c2cccc(Cl)c2)CC1 -6.9%
COc1ccc(-n2ccc(=O)c(C(=O)O)n2)c(OC)c1 3.9%
COc1cccc(CSCC(=O)NCCc2ccccc2)c1OC 1.6%
O=C1CCS/C(=N\N=C\c2ccc(Cl)cc2Cl)N1 6%
c1ccc(-c2noc(-c3ccncc3)n2)nc1 3.1%
O=C(N/N=C/c1ccc(N2CCOCC2)s1)c1ccc(NS(=O)(=O)c2cccs2)cc1 13.7%
CN1CC=C2C(C#N)=C(N)C(C#N)(C#N)[C@H](c3ccoc3)[C@H]2C1 -23.5%
CC1=NNC(=O)C1CC(=O)N/N=C/C=C/c1ccccc1 (configuration not stated) -1%
CCN(CC)S(=O)(=O)c1ccc(C(=O)NCCc2cc3c(OC)ccc(OC)c3[nH]c2=O)cc1 -5.7%
Cc1nn(C)c2nc(-c3cccs3)cc(C(F)(F)F)c12 12.4%
Cc1c(NC(=O)/C(=C/c2cccs2)NC(=O)c2ccccc2)c(=O)n(-c2ccccc2)n1C -6.8%
O=C(O)c1ccc(COc2ccc3c(c2)CCC3)cc1 -2%
CCCCN(C(=O)c1cc(CC)c(C)s1)c1c(N)n(CCC)c(=O)[nH]c1=O -8.2%
Cc1ccsc1C(=O)OCC(=O)c1ccc(OC(F)F)cc1 7.5%
CC(=O)Nc1ccc(Br)c2ccccc12 -7.2%
COC(=O)c1ccc(NC(=O)CSC2=NCCN2)cc1 30.2%
Oc1cc2c(cc1CN1CCc3ccccc3C1)OCO2 4.3%
CS(=O)(=O)N(CC(=O)NCCSCc1c(F)cccc1Cl)c1cccc([N+](=O)[O-])c1 7.2%
COc1ccc(CCN(C)c2ccc(S(=O)(=O)N3CCCC3)cc2[N+](=O)[O-])cc1OC -20.5%
O=C(NC(=S)NNC(=O)c1ccco1)c1ccccc1 1.8%
O=C(CNC(=O)N1CC(=O)Nc2ccccc21)NCc1cccc(Cl)c1 4.8%
COc1ccc(CCNC(=S)NC(=O)c2cccc([N+](=O)[O-])c2)cc1OC 2%
COc1ccc(CCNC(=O)C2CCCN2S(=O)(=O)c2cccc3nsnc23)cc1OC (configuration not stated) -3.3%
O=S(=O)(c1ccccc1)N1CCN(c2ncnc3scc(-c4ccccc4)c23)CC1 -1.8%
CC1=CN2C(=N)/C(=C/c3ccco3)C(=O)N=C2S1 -22.7%
O=C(CNC(=O)c1ccccc1)Oc1cccc(Cl)c1 3%

inhibition, inconclusive:
Nc1c(C(=O)NCc2ccco2)sc2nc(N3CCOCC3)c3c(c12)CCCC3 88.2%
Cn1c(SCCc2ccc([N+](=O)[O-])cc2)nccc1=O 85.2%
Cc1cc(SCC(=O)NC2CCCC2)nc2ccccc12 80.6%
COc1ccc2cc(C#N)c(N3CCN(C(=O)c4ccccc4C)CC3)nc2c1 46.7%
COc1ccc(-c2cc(-c3ccc(C)cc3)nc(SCc3nnc(-c4ccccc4)o3)c2C#N)cc1OC 51.4%
COC(=O)c1cc(NS(=O)(=O)c2ccc(C(C)C)cc2)ccc1N1CCOCC1 89.6%
COC(=O)CSc1nc(C)c(C(=O)Nc2ccccc2C)c(-c2ccc(Cl)cc2)c1C#N 50.1%
COc1ccc(/C=C(\C#N)C(=O)OCC(=O)Nc2c(C)cccc2C)cc1 84.8%
Clc1cccc(Nc2ncnc3ccc(Br)cc23)c1 65.2%
O=C(Oc1ccccc1)Oc1ccc2c(c1)oc(=O)c1ccccc12 78.7%
O=C(O)c1cccnc1C(=O)N1CCc2c([nH]c3ccccc23)C1C(F)(F)F (configuration not stated) 88.3%
CCN(CC(=O)NC(C)C)Cc1nc2c(Br)cc(Br)cc2c(=O)[nH]1 95.4%
CC(CC1C(C#N)=C(N)SC(N)=C1C#N)c1ccccc1 (configuration not stated) 70.3%
CC(Sc1ccc2ccccc2n1)C(=O)O (configuration not stated) 61.2%
CN(C)c1nc(-c2cccs2)cc(C(F)(F)F)c1C#N 59.6%
CCOC(=O)Nc1ccc2c(c1)N(C(=O)N(C)C)c1ccccc1CC2 78.3%
Cc1cc(SC(C)C(=O)O)nc2ccccc12 (configuration not stated) 53%
CC(=O)NCCNc1nc2c(-c3cccc(C(F)(F)F)c3)nnn2c2ccccc12 53%
O=C(O)c1cc(O)c2c(c1)[C@@H]([C@H]1c3cc(C(=O)O)cc(O)c3C(=O)c3c(O[C@@H]4O[C@H](CO)[C@@H](O)[C@H](O)[C@H]4O)cccc31)c1cccc(OC3O[C@H](CO)[C@@H](O)[C@H](O)[C@H]3O)c1C2=O (some centres not stated) 126%
CC1=C(C#N)C(=O)N(C2CCS(=O)(=O)C2)C(=O)/C1=C\c1ccco1 (configuration not stated) 66.4%
COC(=O)c1ccc(N2CCN(C)CC2)c(NC(=O)c2ccc(-c3ccc(Cl)cc3)o2)c1 74.7%
CSCCC(Nc1ncnc2ccc(Br)cc12)C(=O)O (configuration not stated) 84.4%
O=[N+]([O-])c1ccc2ncnc(N3CCN(Cc4ccc5c(c4)OCO5)CC3)c2c1 74.8%
Cc1nc(SCCC(=O)O)c2ccccc2n1 93.6%
O=c1[nH]c(CN2CCN(S(=O)(=O)c3cccs3)CC2)nc2c(Br)cc(Br)cc12 92.4%
COc1ccc(-c2ccc(-c3noc(-c4ccccc4)n3)c(OC)n2)cc1 61.8%
CNC(=O)/C(C#N)=C1\SC(Cc2ccc(F)cc2)C(=O)N1c1ccccc1C (configuration not stated) 70.3%
CC1(C)CC(=O)C2=C(C1)N=C1c3ccccc3C(=O)C1C2c1ccc(Cl)cc1 (configuration not stated) 56.4%
O=C(OC(C(=O)Nc1ccc(Cl)c(C(F)(F)F)c1)c1ccccc1)C1=COCCO1 (configuration not stated) 64.1%
CCCn1c(SCN2C(=O)c3ccccc3C2=O)nc2cc(Cl)ccc2c1=O 64.6%
CC(Sc1nc(N2CCCCC2)c2c(c1C#N)CCCC2)C(=O)O (configuration not stated) 55%
COCc1cc(C)nc(N2CCc3ccccc32)c1C#N 87.7%
COCCNC(=O)CSc1cc(-c2ccccc2)c2ccc(OC)cc2n1 65.3%
NC(=O)c1c(NC(=S)Nc2ccc(F)cc2)sc2c1CCCC2 45.8%
CCOC(=O)c1cc(-c2ccc3c(c2)OCCO3)nc2c1c(C)nn2CCC#N 65.5%
CCCCOc1ccc(-c2c(C#N)c(N)[nH]c(=S)c2C#N)cc1 72%
CCn1cc(/C=C(\NC(=O)c2cc(OC)c(OC)c(OC)c2)C(=O)NCCN2CCOCC2)c2ccccc21 80.1%
CC1(C)CC(=O)c2cnc(N3CCN(c4ccccc4)CC3)nc2C1 76.4%
